Assay results published in PMC11995724, “Antibiotic target discovery by integrated phenotypic and activity-based profiling of electrophilic fragments” (Cell chemical biology, 2025).
Out of some 3,200 compounds screened, about 110 (3.4%) showed an effect of 50% or more. The list shows a part of the results.

System: T1, V. cholerae SAD30
T1 construct: SAD30
Set-up: species or system S. aureus MSSA476 (TSB) or V. cholerae SAD30 (LB); 384-well bacterial growth screen at 25 uM, OD600 relative to DMSO control
Conditions: relative growth, OD600, LB; 25 µM; inhibitor

First: Cc1nnnn1-c1ccc(F)c(NC(=O)CCl)c1 [6-E13, 2-chloro-N-[2-fluoro-5-(5-methyl-1H-1,2,3,4-tetrazol-1-yl)phenyl]acetamide]
Second: CC(Cl)C(=O)Nc1cc(F)ccc1F (stereo not drawn) [6-A09, 2-chloro-N-(2,5-difluorophenyl)propanamide]
The “% of control remaining” value of the first is lower: 89.1838% for the first, 93.734% for the second.

Compared with `Cc1ccc(C2CS(=O)(=O)CCN2C(=O)C(C)Cl)o1` (stereo not drawn) [6-D19, 4-(2-chloropropanoyl)-3-(5-methylfuran-2-yl)-1lambda6-thiomorpholine-1,1-dione], `CC(Cl)C(=O)N1CCOC(c2ccc(Cl)s2)C1` (stereo not drawn) [6-N07, 2-chloro-1-[2-(5-chlorothiophen-2-yl)morpholin-4-yl]propan-1-one] is higher in “% of control remaining” value: 84.6336% for the first, 93.1273% for the second.

Going from `C=CC(=O)NC(CO)c1nc(C)no1` (stereo not drawn) [1-C05, N-[2-hydroxy-1-(3-methyl-1,2,4-oxadiazol-5-yl)ethyl]prop-2-enamide] to `C=CC(=O)N(C)CC(=O)N1CCCC1c1nc(C)no1` (stereo not drawn) [2-M04, N-methyl-N-{2-[2-(3-methyl-1,2,4-oxadiazol-5-yl)pyrrolidin-1-yl]-2-oxoethyl}prop-2-enamide], the “% of control remaining” value rises from 80.2691% to 95.1365%.

Compared with `CC1(C)C(=O)Nc2ccc(C(=O)CCl)cc21` [10-N21, 5-(2-chloroacetyl)-3,3-dimethyl-2,3-dihydro-1H-indol-2-one], `Cc1cccc2[nH]cc(C(=O)CCl)c12` [10-H09, 2-chloro-1-(4-methyl-1H-indol-3-yl)ethan-1-one] is higher in “% of control remaining” value: 35.0672% for the first, 100.526% for the second.

First: C=CC(=O)N1CCCC(C2CCN(C(=O)c3cc(C)nn3C)CC2)C1 (stereo not drawn) [1-P22, 1-[1'-(1,3-dimethyl-1H-pyrazole-5-carbonyl)-[3,4'-bipiperidin]-1-yl]prop-2-en-1-one]
Second: C=CC(=O)N1CCC(C(O)c2ccnn2C)CC1 (stereo not drawn) [3-K03, 1-{4-[hydroxy(1-methyl-1H-pyrazol-5-yl)methyl]piperidin-1-yl}prop-2-en-1-one]
The “% of control remaining” value of the first is higher: 110.893% for the first, 106.91% for the second.

First: C=CC(=O)NC1CCOCC1 [2-G17, N-(oxan-4-yl)prop-2-enamide]
Second: C=CC(=O)NC1CCSC(C)C1 (stereo not drawn) [1-J06, N-(2-methylthian-4-yl)prop-2-enamide]
The “% of control remaining” value of the first is lower: 90.3503% for the first, 108.685% for the second.

Compared with `COC1CCC(N(Cc2cc(C)oc2C)C(=O)CCl)CC1` (stereo not drawn) [5-O20, 2-chloro-N-[(2,5-dimethylfuran-3-yl)methyl]-N-(4-methoxycyclohexyl)acetamide], `Cc1cccc(N(Cc2c(C3CC3)cnn2C)C(=O)CCl)c1` [5-D07, 2-chloro-N-[(4-cyclopropyl-1-methyl-1H-pyrazol-5-yl)methyl]-N-(3-methylphenyl)acetamide] is higher in “% of control remaining” value: 94.8198% for the first, 101.545% for the second.

Compared with `CCc1ccc(NC(=O)C(C#N)=Cc2cccnc2)cc1` [8-G04, 2-cyano-N-(4-ethylphenyl)-3-(pyridin-3-yl)prop-2-enamide], `CCc1ccc(C=C(C#N)C(=O)Nc2cc(C)c(Cl)cc2OC)cc1` [8-G11, N-(4-chloro-2-methoxy-5-methylphenyl)-2-cyano-3-(4-ethylphenyl)prop-2-enamide] is lower in “% of control remaining” value: 83.8205% for the first, 68.4568% for the second.

First: C=CC(=O)N(C)Cc1ccncc1 [1-N21, N-methyl-N-[(pyridin-4-yl)methyl]prop-2-enamide]
Second: C=CC(=O)N(C)Cc1cc2ccccc2o1 [3-I09, N-[(1-benzofuran-2-yl)methyl]-N-methylprop-2-enamide]
The “% of control remaining” value of the first is higher: 89.5366% for the first, 87.6787% for the second.

Going from `O=C(CCl)Cc1c(F)cccc1Cl` [10-D20, 1-chloro-3-(2-chloro-6-fluorophenyl)propan-2-one] to `O=C(CCl)Cc1ccc(Cl)cc1Cl` [10-A15, 1-chloro-3-(2,4-dichlorophenyl)propan-2-one], the “% of control remaining” value falls from 36.1582% to 22.1313%.

Compared with `Cc1noc(C2CN(C(=O)C(C)Cl)C2)n1` (stereo not drawn) [7-G04, 2-chloro-1-[3-(3-methyl-1,2,4-oxadiazol-5-yl)azetidin-1-yl]propan-1-one], `C=CC(=O)NC(c1nnc2n1CCC2)C(C)C` (stereo not drawn) [3-P07, N-(2-methyl-1-{5H,6H,7H-pyrrolo[2,1-c][1,2,4]triazol-3-yl}propyl)prop-2-enamide] is higher in “% of control remaining” value: 93.3091% for the first, 104.44% for the second.

Going from `C[C@H]1CN(C(=O)CCl)Cc2cccn21` [5-B03, 2-chloro-1-[(4S)-4-methyl-1H,2H,3H,4H-pyrrolo[1,2-a]pyrazin-2-yl]ethan-1-one] to `CN(C)C(=O)c1cc2n(n1)CC1(CCN(C(=O)CCl)CC1)OC2` [5-K11, 1-(2-chloroacetyl)-N,N-dimethyl-4',7'-dihydrospiro[piperidine-4,6'-pyrazolo[3,2-c][1,4]oxazine]-2'-carboxamide], the “% of control remaining” value falls from 107.429% to 97.5097%.

First: CCCn1c(C)cc(C=C(C#N)C(=O)Nc2cccc(C#N)c2)c1C [8-N19, 2-cyano-N-(3-cyanophenyl)-3-(2,5-dimethyl-1-propyl-1H-pyrrol-3-yl)prop-2-enamide]
Second: CC(=O)Nc1ccc(C=C(C#N)C(=O)Nc2cccc(C)c2C)cc1 [9-D19, 2-cyano-N-(2,3-dimethylphenyl)-3-(4-acetamidophenyl)prop-2-enamide]
The “% of control remaining” value of the first is lower: 77.8382% for the first, 89.5309% for the second.

First: C=CC(=O)Nc1ccc(C(=O)NC2CCN(C(C)C)C2=O)cc1 (stereo not drawn) [3-C10, N-[2-oxo-1-(propan-2-yl)pyrrolidin-3-yl]-4-(prop-2-enamido)benzamide]
Second: C=CC(=O)N1CCC(C(=O)NCc2ccc(C(N)=O)nc2)CC1 [3-N05, 5-({[1-(prop-2-enoyl)piperidin-4-yl]formamido}methyl)pyridine-2-carboxamide]
The “% of control remaining” value of the first is higher: 104.264% for the first, 97.7357% for the second.

Compared with `CC(Cl)C(=O)N1CC(=O)Nc2cc(C(F)(F)F)ccc21` (stereo not drawn) [4-N20, 4-(2-chloropropanoyl)-7-(trifluoromethyl)-1,2,3,4-tetrahydroquinoxalin-2-one], `COc1ccc2nnc(CNC(=O)C(C)Cl)n2n1` (stereo not drawn) [7-J15, 2-chloro-N-({6-methoxy-[1,2,4]triazolo[4,3-b]pyridazin-3-yl}methyl)propanamide] is lower in “% of control remaining” value: 104.378% for the first, 82.6037% for the second.

First: C=CS(=O)(=O)Nc1ccccc1 [10-C07, N-phenylethene-1-sulfonamide]
Second: C=CC(=O)NCc1ccccc1-n1ccc(C)n1 [1-J19, N-{[2-(3-methyl-1H-pyrazol-1-yl)phenyl]methyl}prop-2-enamide]
The “% of control remaining” value of the first is higher: 102.24% for the first, 86.0987% for the second.

Compared with `CC(C)(C)N(Cc1ccccc1)C(=O)CCl` [5-H20, N-benzyl-N-tert-butyl-2-chloroacetamide], `N#CC(=CNc1ccc(F)cc1)C(=O)NCc1ccccc1` [8-E20, N-benzyl-2-cyano-3-[(4-fluorophenyl)amino]prop-2-enamide] is lower in “% of control remaining” value: 97.1735% for the first, 82.4609% for the second.

First: C=CC(=O)N1CCOC(c2ccccc2Cl)C1 (stereo not drawn) [1-P20, 1-[2-(2-chlorophenyl)morpholin-4-yl]prop-2-en-1-one]
Second: COc1cc2c(cc1NC(=O)C(C)Cl)oc1ccccc12 (stereo not drawn) [6-G09, 2-chloro-N-{4-methoxy-8-oxatricyclo[7.4.0.0,2,7]trideca-1(9),2(7),3,5,10,12-hexaen-5-yl}propanamide]
The “% of control remaining” value of the first is higher: 138.616% for the first, 55.9674% for the second.

Compared with `CN(C)S(=O)(=O)c1ccc(Cl)c(NC(=O)CCl)c1` [6-H12, 2-chloro-N-[2-chloro-5-(dimethylsulfamoyl)phenyl]acetamide], `C=CC(=O)NCc1c(F)cccc1S(=O)(=O)N(C)C` [3-L15, N-{[2-(dimethylsulfamoyl)-6-fluorophenyl]methyl}prop-2-enamide] is higher in “% of control remaining” value: 86.757% for the first, 91.9133% for the second.

Going from `Cl.O=C(CCl)NCC(c1nccs1)N1CCCC1` (stereo not drawn) [6-D11, 2-chloro-N-[2-(pyrrolidin-1-yl)-2-(1,3-thiazol-2-yl)ethyl]acetamide hydrochloride] to `O=C(Nc1nccs1)N1CCSSCC1` [10-O22, N-(1,3-thiazol-2-yl)-1,2,5-dithiazepane-5-carboxamide], the “% of control remaining” value rises from 92.0656% to 98.344%.

Going from `N#CC(=Cc1cccc2ccccc12)C(=O)NCc1ccc(Cl)cc1` [8-J09, N-[(4-chlorophenyl)methyl]-2-cyano-3-(naphthalen-1-yl)prop-2-enamide] to `Cc1ccccc1C(C)NC(=O)C(C#N)=Cc1ccco1` (stereo not drawn) [9-E06, 2-cyano-3-(furan-2-yl)-N-[1-(2-methylphenyl)ethyl]prop-2-enamide], the “% of control remaining” value rises from 74.7111% to 75.9347%.

Compared with `CC(C)(C)OC(=O)[C@H]1C[C@@H]1C(=O)CCl` (racemic) [10-C13, rac-tert-butyl (1R,2R)-2-(2-chloroacetyl)cyclopropane-1-carboxylate], `Cc1ccc([N+](=O)[O-])cc1N1C(=O)C=CC1=O` [10-O14, 1-(2-methyl-5-nitrophenyl)-2,5-dihydro-1H-pyrrole-2,5-dione] is lower in “% of control remaining” value: 106.293% for the first, 26.6511% for the second.

`N#CC(=Cc1ccc(N2CCOCC2)cc1)C(=O)Nc1nccs1` [9-F17, 2-cyano-3-[4-(morpholin-4-yl)phenyl]-N-(1,3-thiazol-2-yl)prop-2-enamide] was tested, and the “% of control remaining” value was 83.6846%.
